Assay results reported in the supplement of paper PMC10126150.
Values marked as one replicate rest on one cluster of the flow cell; about a third of the high ones do not repeat.

Test system: ATP
Experiment: switch fluorescence ratio, 500 uM ATP over buffer (Cy3 cluster intensity, sum of 5 cycles each) (fold (ratio)); higher = stronger signal-on switching upon ATP binding; sequences stand for … in TCGTCGGCAGCGTCAGATGTGTATAAGAGACAGTTTTTTTTTTTTTTTTTTTTTTTTT…TC
Conditions: aptamer strand: ATP DNA aptamer (quencher-CACCTGGGGGAGTATTGCGGAGGAAGG + anchor), 100 nM annealed; ATP concentration: 500 uM; one replicate
Outline: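 Cy3-labelled switching-strand clusters on a modified Illumina MiSeq flow-cell were annealed to 100 nM quencher-labelled ATP aptamer, imaged in selection buffer, then imaged after 15 min with 500 uM ATP at 22 °C. Five buffer/ATP cycles ran, with NaOH stripping and re-annealing between them. The fluorescence ratio is summed target-cycle over summed buffer-cycle Cy3 intensity per cluster, averaged per switch-domain sequence. Clusters outside 100-1000 RFU were excluded.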
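Note: ATP exposure 15 min at 22 °C before imaging.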

Sequence | switch fluorescence ratio
TGGGAGGTAG | 0.953
CCTTCCAGAA | 1.45
CTGGGGGAGG | 1.06
TCATGTCAAC | 0.929
TTTAGGACCT | 1.26
GGTTAGGGT | 1.05
AGGAAGGTTA | 1.02
CTTCCCTATT | 1.06
ATGGTCGTGG | 1.05
CTAGTTATGC | 1.02
TGCATACCCG | 1.05
TATCTCCGAG | 1.19
GGGCAGAACT | 1.02
AGGCTAATAA | 0.982
GCATGCGGTT | 0.999
TACGAGAGCG | 1.04
CATTGTGGCC | 1.06
ACGTATTCGA | 1.07
TAGGGCAAAA | 1.02
CCTAACGAGT | 1.02
TAGTATTGAA | 1
ATTCACCCTC | 0.997
CCCGAGCTA | 2.95

Sequence | switch fluorescence ratio
ATTCACATT | 1.06
CAAGGTGCAT | 1.28
CCACTGTTGC | 1.06
CGAATGCATT | 1.04
GAAATTCAAT | 1
TGTGAATTAG | 0.992
ATTCACGGGT | 1.06
TAAGCCATAG | 1.13
TCCAAGGATG | 1.03
TGATTACGAG | 1.04
TAAAACGCAG | 1.02
GCGGGAAAAG | 0.928
ATATATATGA | 0.959
GGGGTAGCTC | 0.963
GGGTAAAGT | 1.02
TAGTCAAATG | 0.979
GAGCAAAGAA | 1.07
GTGCCAAAAT | 1.04
AATGGTGGCG | 0.949
GAATCGAAAA | 1.04
TTATTCCATG | 1
AATGATCCCC | 1.06
TCCGGTTCGC | 1.13

Sequence | switch fluorescence ratio
ACGGAGTTGT | 1.04
TAGGAGTCGG | 0.983
GAGAACGGAT | 0.973
CGTTTGCTCA | 1.03
CCGCCGTCCG | 1.41
GGGCTAACCG | 1
AGGAAGGACA | 1.01
CGATTGATAG | 0.986
ACCAGAATT | 0.988
CCAGTGGCTT | 0.991
TACTGAGGGC | 1.06
GAATGATAAT | 1.03
ATATAACCGG | 0.98
AAGTCGGCTC | 1.03
CTTATTGCAC | 1.04
AATACCCAGG | 2.66
GAGATGTGTG | 0.955
CAGTATCATA | 0.994
TCAGCAATAT | 1.04
GAGTCCTCGT | 1.01
TTATGTGTGG | 1.01
GACCAAGATA | 0.999
ATTCGAGACG | 1.06

Sequence | switch fluorescence ratio
GCGTTAGGTG | 1.09
CATGATGTAG | 1.04
GGGGATTCCG | 1.1
ATTAGGTGTG | 0.984
CTCCACATAG | 3.56
AACTAAGAG | 1.02
TCCTAGGTG | 4.96
CAAATTACAT | 1.02
GTTTTTACG | 1.03
TAGTTGATCC | 1.01
TGACGTATGA | 1
AGTCGTAATG | 1.01
CCGGGTTGGA | 1.07
GTGGTGCGTC | 1.02
GGGACAGTGT | 1.01
TCGATTTGCT | 0.972
GTGTAGCTTC | 1.02
CAGGAGTTCG | 0.989
GATCGGGATG | 0.988
CGGGGGGTAT | 0.993
TAAACGTTCA | 1.29
TGATGGGTCT | 1.04
AGGGTTGAGG | 1.08

Sequence | switch fluorescence ratio
ACAAATCTCT | 1.06
GATTTCATTC | 0.966
ATGCACGAAT | 1.02
GTAGGTATTT | 0.996
TCCGTGGGCG | 1.05
GGATAAGCCC | 0.984
TAGTGCGTA | 0.931
GTCCGGAAGG | 1.02
AATTTCAGTA | 1
CAATTACACT | 1.03
GCGAGTGGTG | 1.01
CGATGAAATG | 1.02
TATCATTTGA | 0.943
CCAAAATCTT | 1.01
GTAAGACTGG | 0.978
CCAGGAGTAA | 1.42
CTAATGGCGC | 1.03
CTTGAATTGT | 0.98
CCTGTTGGCT | 0.98
CAGCTCTGG | 0.986
TCTCCATACA | 1.24
AGATTGATAC | 1.05
TTAACGACGG | 1.04

Sequence | switch fluorescence ratio
GGGGGCAAGG | 0.977
TGGCTTAAGT | 0.996
ATCCAATCAC | 1.09
GGCAGCTCTG | 1.02
GTATACGGGC | 0.986
TTCTTTCCTT | 1.56
AGGGTGTCAG | 1.08
CCCTATGGAG | 0.995
TGGGATGTT | 1.01
ACCCCCATTC | 1.35
TACAGAGTAT | 1.04
TGAAACCAAA | 0.995
TAGGTCCAGT | 0.983
TCATTCGTAC | 1.56
TATCCCTTG | 0.993
GGTGTCATCG | 0.955
TGTTTTTCCT | 1.03
AGGTCAAACG | 1.01
GAAATCGGAG | 1.06
ATGATGGCTC | 1
ACCGTAGAAG | 1.1
ATAGGCTCA | 1.01
ATACTT | 1.23

Sequence | switch fluorescence ratio
TTCCCAGGGA | 1.09
AGCCGATCAA | 1.02
ATAGGTGTGC | 1.05
TAACTCTATG | 0.967
GTAGAAGAAC | 1.02
CATTATCCAG | 1.02
GACTTATTTG | 0.995
TGTTCCGCAT | 4.86
GGCATAAATC | 1.04
TTTAAGTAC | 1.42
TTGTTACCTG | 0.967
GTTTATTTTA | 1.01
TGTGGTTAG | 1.02
TTCCATGAAC | 1.01
ACCCAATCG | 1.09
TGGCTTTCTA | 1
TACGCAGGAT | 1.15
CCTTTGAGGG | 1.03
TATTGCGGGT | 1
